Screen size: about 45,000 compounds; about 65 (0.1%) were called active. Calls follow the shape of the dose curve; as a rule, active = well fitted activation curve with a large enough effect; inconclusive = small, poorly fitted or top-dose-only effect; inactive = no such curve, though single readings can be large or run the other way. Some of the results follow.
Target: Galactocerebrosidase (Homo sapiens) (UniProt P54803)
Assay: A Novel Cell-Based Assay to Identify Small Molecules for B -Galactocerebrosidase; also: 0% is about no effect; nearly all actives have a fitted effect of over 65% in size
Settings: 145M-Twi-hGALC-G270D cells (Twitcher mouse brain line with human GALC G270D), HMU-beta-Gal fluorescence, 48 h; series mostly up to 57.5 µM; activation: at the top concentration
Outline: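 Fluorogenic HMU-b-Gal hydrolysis (0.1 mM final, pH 5.2 citrate-phosphate with 1 mg/mL sodium taurocholate; carbonate stop buffer) measures mutant GALC activity after compound treatment of live 145M-Twi Twitcher brain cells stably carrying human GALC-G270D, with wild-type GALC line alongside; activation sought.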

UniProt P54803, sequence (P54803 whole entry, looked up): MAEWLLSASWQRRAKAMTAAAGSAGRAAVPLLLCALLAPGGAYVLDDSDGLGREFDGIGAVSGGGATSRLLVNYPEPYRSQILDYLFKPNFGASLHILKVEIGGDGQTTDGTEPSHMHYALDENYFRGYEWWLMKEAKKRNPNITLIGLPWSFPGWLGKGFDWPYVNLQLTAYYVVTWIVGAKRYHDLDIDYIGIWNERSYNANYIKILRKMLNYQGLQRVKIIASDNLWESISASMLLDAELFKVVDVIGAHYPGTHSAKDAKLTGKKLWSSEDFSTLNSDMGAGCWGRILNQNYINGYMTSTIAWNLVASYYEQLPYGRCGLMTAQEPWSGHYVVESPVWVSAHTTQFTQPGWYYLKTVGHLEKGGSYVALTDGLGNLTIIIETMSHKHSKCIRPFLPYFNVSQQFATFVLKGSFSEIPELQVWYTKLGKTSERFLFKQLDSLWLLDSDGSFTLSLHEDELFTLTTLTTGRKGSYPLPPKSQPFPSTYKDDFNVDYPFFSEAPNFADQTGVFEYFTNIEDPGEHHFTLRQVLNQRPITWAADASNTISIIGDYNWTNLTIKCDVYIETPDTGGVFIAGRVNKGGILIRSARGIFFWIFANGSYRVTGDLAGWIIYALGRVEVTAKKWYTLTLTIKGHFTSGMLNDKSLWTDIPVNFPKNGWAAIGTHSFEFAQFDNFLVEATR

activation, inactive:
CCc1ccc(CNC(=O)c2cc3cc(S(=O)(=O)N4CCCCC4)ccc3n2C)cc1 -2.45%
Nc1c(C(=O)NCc2ccc(Cl)cc2Cl)nnn1Cc1ccc(Br)cc1 0.508%
Cc1ccc(Nc2nnc(-c3ccc(C)c(S(=O)(=O)N4CCN(C)CC4)c3)c3ccccc23)cc1 1.39%
CCC1CN(C(=O)N2CCC(C(=O)NCCc3ccccc3Cl)CC2)c2cc(C)ccc2O1 (centres undefined) 12.2%
COc1cc(NC(=O)CN2c3ccccc3S(=O)(=O)c3ccccc32)cc(OC)c1 -6.03%
CCCC(O)c1nc2ccccc2n1Cc1ccccc1OC (centres undefined) -36.4%
Cc1cccc(C(C)C)c1NC(=O)C1CCCN1S(=O)(=O)c1cccc2nsnc12 (centres undefined) -11.1%
Cc1ccc(C(=O)CSc2nc(-c3ccccc3)nc3c2CCCC3)c(C)c1 8.67%
CCOCCCn1c(SCC(=O)OCC)nc2c(sc3ccccc32)c1=O 2.28%
COCCNC(=O)CSc1nc(-c2cc(OC)c(OC)c(OC)c2)[nH]c1-c1ccc(Cl)cc1 -4.74%
COc1ccc(CCNC(=O)C2CCC(CNS(=O)(=O)c3ccc(C)cc3)CC2)cc1OC (centres undefined) -2.15%
O=S(=O)(c1ccccc1)c1nnn2c1nc(NC1CCCCC1)c1sccc12 -11.9%
CNC(=O)C1CCC(Cn2c(=O)c3sccc3n(CC(=O)Nc3ccc(C)c(C)c3)c2=O)CC1 (centres undefined) -6.3%
Cc1ccc(CN(C(=O)c2ccccc2)c2ccccn2)o1 -1.69%
O=C(O)CCCCn1c(SCC(=O)Nc2ccccc2C(F)(F)F)nc2ccsc2c1=O -3.42%
CCc1ccc(NC(=O)CN(c2ccc(C)cc2)S(=O)(=O)c2cccs2)cc1 -4.94%
COc1ccc(-c2cc(C)no2)cc1S(=O)(=O)N1CCc2ccccc21 -13.7%
Cc1ccc(Cl)cc1NC(=O)Nc1nnc(N(C)Cc2ccccc2)s1 -18.4%
Cn1c(=O)c2c(SCC(=O)Nc3ccccc3C(F)(F)F)nc(C3CCCC3)nc2n(C)c1=O -3.15%
CCc1ccc(NC(=O)C(=O)NCC(c2cccnc2)N2CCN(c3ccc(F)cc3)CC2)cc1 (centres undefined) -15.5%
CC(=O)c1cccc(NC(=O)c2nc(-c3ccccc3)n(-c3cccc(Cl)c3)n2)c1 -31.6%
Cc1ccc(NC(=O)CSc2nc(=O)n(CCN3CCOCC3)c3c2CCC3)c(C)c1 -16.4%
Cc1ccc(NC(=O)c2nc(S(C)(=O)=O)ncc2N(Cc2ccco2)Cc2cccs2)c(C)c1 3.65%
Cc1ccc(OCC(=O)Nc2nnc(S(=O)(=O)N3c4ccccc4CC3C)s2)cc1 (centres undefined) -14.7%
Cc1ccc(C(=O)Nc2ccc(S(=O)(=O)N3CCC(c4nc5ccccc5s4)CC3)cc2)cc1 -21.2%
CC(=O)N1CCc2nc3sc(C(=O)c4ccc(F)cc4)c(N)c3c(C(F)(F)F)c2C1 -13.4%
Cc1nnc(N2CCC(C(=O)N3CCCCC3)CC2)c2nn(-c3ccc(Cl)cc3)c(C)c12 -10.7%
Cc1ccc(OCCCCn2nnc3sc4c(c3c2=O)CCCC4)cc1 -8.66%
CCOc1ccccc1Nc1sc(C(=O)c2ccccc2)c(N)c1C(=O)Nc1ccccc1 -13.4%
CCc1ccc(NC(=O)Cn2c(=O)n(CCCCC(=O)NCc3ccc4c(c3)OCO4)c(=O)c3ccccc32)cc1 -11.8%
CC(=O)c1cc(-c2ccccc2)n(CCC(=O)NCc2ccc(C)cc2)c1C -15.5%
CC(C)(C)c1ccc(C(=O)Nc2ccc3c(c2)CCCN3C(=O)c2cccs2)cc1 -14.6%
CCOc1ccccc1NC(=O)c1ccc2c(Cl)c3c(nc2c1)CCC3 -8.48%
COc1ccc(-c2nn3c(=O)cc(CN4CCN(C(=O)c5ccc(OC)c(OC)c5)CC4)nc3s2)cc1 3.39%
CCOc1ccccc1CNc1ccc2cc(S(=O)(=O)N3CCC(C)CC3)ccc2n1 -6.21%
COc1ccc(-c2noc(N(c3nc(-c4ccc(OC)c(OC)c4)no3)c3ccccc3OC)n2)cc1OC -0.735%
Cc1ccc(CNC(=O)C2CCN(S(=O)(=O)c3ccc4[nH]c(=O)ccc4c3)CC2)cc1 6.13%
Cc1nc2nc[nH]n2c(=O)c1CCC(=O)Nc1ccc(F)cc1 2.78%
CCC(C)NC(=O)CSc1nc2cc3c(cc2c(=O)n1CCCCCC(=O)NCc1ccc2c(c1)OCO2)OCO3 (centres undefined) -5.02%
Cc1ccccc1S(=O)(=O)Cc1ccc(C(=O)NC2CCC(C)CC2)o1 (centres undefined) -9.21%
CCOc1ccc(NC(=O)Cn2c(=O)n(-c3ccccc3)c(=O)c3ccc(C(=O)NCc4ccc5c(c4)OCO5)cc32)cc1 -24.8%
Cc1nn(-c2ccccc2)c2c1N(CC(=O)N1CCN(c3ccc(F)cc3)CC1)C(=O)CS2 -19.4%
CC1(C)C(=O)N(CC(=O)Nc2cccc(F)c2)c2ccc(S(=O)(=O)N3CCCCC3)cc21 -11.4%
COc1cccc2cc(C(=O)Nc3ccc(F)c(F)c3)c(=O)oc12 -14.4%
CCOc1ccc(-n2ccnc2SCC(=O)Nc2nc3ccc(C)cc3s2)cc1 -6.18%
Cc1cc(-c2ccc(C)c(S(=O)(=O)NC3CCCCC3)c2)on1 -3.42%
Nc1ncnc(Nc2ccccc2)n1 -8.78%
Cc1ccc(Cl)cc1-n1c(=O)c2sc3ccccc3c2n(Cc2ccccc2)c1=O -6.57%
CCCCCSc1nnc(-c2ccc(Br)cc2)o1 -22.5%
CCOc1cc(-c2nnc(SCC(=O)NC3CCCC3)nc2-c2ccc(OC)c(OCC)c2)ccc1OC -14.7%
CC(C)c1ccc(-c2nc(C(N)=O)c3c(n2)n(-c2ccc4c(c2)OCO4)c(=O)n3C)cc1 -20.1%
CCOc1ccc(NC(=O)Cn2cc(S(=O)(=O)NC)c(S(=O)(=O)NC)c2)cc1 -10.3%
COc1ccc(NC(=O)C2CCN(S(=O)(=O)c3ccc4[nH]c5c(c4c3)CCCCC5)CC2)cc1 -1.5%
O=C(Nc1cccc(F)c1)[C@H](CSCc1ccccc1)N1Cc2ccccc2C1=O 11.5%
O=C(CSc1nccn1C1CCCC1)Nc1ccc(C(F)(F)F)cc1 -12%
CC(C)CCN1C(=O)c2ccccc2CC1(C)C(=O)NC1CCC(C)CC1 (centres undefined) -9.5%
CCOC(=O)C1=C(C)NC(=O)NC1c1cn(-c2ccccc2)nc1-c1ccc(OCC)cc1 (centres undefined) -21.5%
CCCCOc1cccc(C(=O)Nc2cccc(-c3nc4ncccc4o3)c2C)c1 -1.23%
Cc1ccc(NC(=O)C2CCCN(c3ncnc4onc(-c5ccc(F)cc5)c34)C2)c(Cl)c1 (centres undefined) -15.3%
CSc1ncc(C(=O)N2CCN(c3cc(C)ccc3C)CC2)c(C)n1 4.58%
CCC(C)NC(=O)Cn1ccc2cc(S(=O)(=O)N3CCCCC3)ccc21 (centres undefined) -13.2%
CCC1CN(C(=O)NCc2ccc(C)cc2)c2ccccc2O1 (centres undefined) 8.08%
CCOc1ccc(-c2ncnn2-c2sc3c(c2C#N)CCCCC3)cc1 -19.1%
CC(C)c1ccc(N2C(=O)CS(=O)(=O)C23C(=O)N(Cc2cccc(F)c2)c2ccccc23)cc1 (centres undefined) -21.5%
Cc1oc(-c2ccc(C(=O)NCc3ccc(Cl)cc3)cc2)nc1CS(=O)(=O)c1ccccc1 -2.17%
CCn1c(=N)c(C(=O)NCc2ccccc2)cc2c(=O)n3cc(C)ccc3nc21 -9.49%
CCCCNC(=O)C(Cc1ccccc1)NS(=O)(=O)c1ccc2c(c1)c(=O)n(C)c(=O)n2C (centres undefined) 16.6%
COc1ccc(Cn2ccc3nc(C)c(C(=O)Nc4cc(C)cc(C)c4)cc3c2=O)cc1 -13.8%
COc1ccccc1CCNC(=O)c1ccc(-c2nc(CSc3ccc(C)cc3)c(C)o2)cc1 -11.1%
CSc1ncc(C(=O)Nc2c(C)cccc2C)c(-c2ccccc2)n1 -9.33%
Cc1nc2ccccc2c(=O)n1-c1ccc(NC(=O)c2cccc([N+](=O)[O-])c2)cc1 -18.3%
Cc1cc2c(C(C)C)c(O)c(O)c(C=O)c2c(O)c1-c1c(C)cc2c(C(C)C)c(O)c(O)c(C=O)c2c1O -15.4%
Cc1cc(C)c(OCC(=O)N(Cc2ccco2)Cc2ccco2)c(C)c1 -8.92%
Cc1ccc(C)c(NC(=O)c2cc(S(=O)(=O)N3CCCc4ccccc43)ccc2F)c1 -1.65%
COc1ccc(-n2c(=O)c3ccccc3n(CC(=O)Nc3ccccc3OC)c2=O)cc1 -9.08%
Cc1ccc(SCC(=O)Nc2ccc3oc(-c4ccccc4C)nc3c2)cc1 -14.1%
COc1cc(OC)cc(C(=O)Nc2cc3c(cc2N2CCCC2)n(C)c(=O)c(=O)n3C)c1 -34.9%
CCOC(=O)c1c(NC(=O)c2cc3ccccc3c(=O)o2)sc2c1CCC(C)C2 (centres undefined) -12.5%
C[C@]1(Cn2ccnn2)[C@H](C(=O)O)N2C(=O)C[C@H]2S1(=O)=O -16%
CSc1ccc(CCNC(=O)CCn2c(=O)c3cccn3c3ccc(F)cc32)cc1 -13.3%
COc1ccc(NC(=O)CSc2nc(-c3ccc(F)cc3)[nH]c2-c2ccc(C)cc2)cc1OC -13.1%
COc1ccc(S(=O)(=O)c2c(O)c3ccc(C(=O)NCc4ccc(F)cc4)cc3[nH]c2=O)cc1 -19.2%
CC(=O)c1ccc(NC(=O)c2cnn(-c3cccc(F)c3)c2-n2cccc2)cc1 -8.39%
Cc1ccc(CNC(=O)c2cc(C)nc3c2c(C)nn3-c2ccc(C)cc2)cc1 -13.2%
CCOc1ccc(NC(=O)c2cnc3ccccn3c2=O)cc1 -14.3%
Cc1ccc2c(CC(=O)Nc3c(C(=O)c4ccc(C)c(F)c4)oc4ccccc34)coc2c1 -9.44%
CC(CN(C)C)C(C)(O)Cc1ccc(Cl)cc1 (centres undefined) -12.6%
CCOC(=O)c1cc(S(=O)(=O)NCc2ccc(C)cc2)[nH]n1 -19%
COc1ccccc1NC(=O)CCCc1nnc2n(C)c(=O)c3sccc3n12 -9.51%
O=S(=O)(c1ccc(Cl)cc1)c1nc(-c2ccco2)oc1SCc1ccc(F)cc1 -10.7%
COc1ccc(CCN2C(=O)c3[nH]nc(-c4ccccc4O)c3C2c2ccc(OC)cc2)cc1 (centres undefined) -17.5%
O=C(Nc1ccc(Oc2ccccc2)cc1)C1CCN(S(=O)(=O)c2ccc(Cl)cc2)CC1 -0.056%
CCOc1ccc(CCNC(=O)c2ccc3c(c2)c(C)c(C)n3Cc2ccccc2)cc1OCC 4.49%
COc1ccccc1CNC(=O)CCC1N=C2c3ccccc3N=C(SCc3ccc(C)cc3C)N2C1=O (centres undefined) -13.5%

Source: PubChem BioAssay AID1159614 (National Center for Advancing Translational Sciences (NCATS), 2016)
